# Data as given in PubChem BioAssay (NCI).
# Where “and” joins values, the source holds several entries; their conditions need not be identical. Equal entries are not always repeated.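 Results reflect a 48-hour exposure of cells in 96-well plates to compound at five concentrations. GI50 = concentration required for 50% inhibition of growth. At the TGI there is no net growth.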
# System: NCI-H322M lung
# Assay: NCI tumour cell line growth inhibition, 48 h
Structure (SMILES),TGI,GI50 [µM]
CN(C)c1ccc(/C=N\NC(=O)c2ccccc2Nc2ccccc2C(=O)N/N=C/c2ccc(N(C)C)cc2)cc1,> 100 µM,–
CC(=O)CC(=O)Nc1ccc2ccccc2c1,> 100 µM,–
Cn1ccnc1CC(C)(O)c1ccccc1 (stereo not given),> 100 µM,–
CCOC(=O)C(N)C[S][Sn]([CH3])([CH3])[Cl] (stereo not given),> 100 µM,> 100
COc1ccc(CN(C)c2ccc(CO)c(Cl)c2)cc1,99.6 µM,16.7
Cc1oc2c(c1C)S(=O)(=O)C(C#N)C(c1ccccc1)N2 (stereo not given),> 100 µM,–
CCOC(=O)CCC(NC(=O)c1ccc(CNc2nc3ccccc3nc2C(=O)OCC)cc1)C(=O)OCC (stereo not given),> 100 µM,–
C/C1=C/C(C)CC(C)OC(=O)C(C)NC(=O)C(Cc2ccc(O)c(I)c2)N(C)C(=O)CNC(=O)C(C)C1 (stereo not given),> 100 µM,–
COC(=O)C1C(C(=O)OC)C2(OC)c3ccccc3-c3ccccc3C12 (stereo not given),> 100 µM,–
COc1ccc([N+](=O)[O-])c2c(NCCCN(C)C)c3ccccc3nc12,3.71 µM,–
O=c1[nH]n(Cc2ccccc2Cl)c2ccc([N+](=O)[O-])cc12,> 100 µM,–
CO[C@@H]1/C=C\C=C(/C)C(=O)NC2=CC(=O)C(NCCN(C)C)=C(C[C@@H](C)C[C@@H](OC)[C@@H](O)[C@H](C)/C=C(\C)[C@H]1OC(N)=O)C2=O,2.15 µM and 16.3 µM,–
Cc1c(NC(=O)C(C)(C)Br)c(=O)oc2c(C)c3occc(=O)c3cc12,> 100 µM,–
CC12CCC3[C@@H](CC3(C)C)C(O)(CCC1=O)C2 (stereo not given in full),> 100 µM,–
O=C(Nc1cc(Cl)c(Cl)cc1Cl)C(=O)C1C=CCS1(=O)=O (stereo not given),> 100 µM,–
COC(=O)c1cc2c(o1)Sc1ccccc1NC2=O,> 100 µM,–

Structure (SMILES),TGI,GI50 [µM]
NNC(=O)/C(=C/c1ccc(Cl)c(Cl)c1)NC(=O)c1ccccc1,> 100 µM,–
CC1C[C@@]2(c3ccccc3)C(=O)CCC[C@H]2N1 (stereo not given in full),> 100 µM,–
COc1cc2c(cc1OCCCOc1cc3c(cc1OC)C(=O)N1C[C@H](F)C[C@H]1C=N3)N=C[C@@H]1C[C@@H](F)CN1C2=O,31.9 µM,13.5
CCN(CC)CSc1nc2ccccc2o1,> 100 µM,–
COC(=O)c1c(O)ccc2c1c1c(n2Cc2ccccc2)C(=O)c2ccccc2C1=O,29.1 µM,–
Cc1cc(C)nc(NS(=O)(=O)c2ccc(NNc3c4ccccc4nc4c(C(=O)Nc5ccc(S(=O)(=O)Nc6ncccn6)cc5)cccc34)cc2)n1,> 100 µM,–
CSc1ccc(C2=NN(C(=O)c3ccc(F)cc3)C(c3ccc(F)cc3)C2)cc1 (stereo not given),29.7 µM,16
COc1cc(/C=C(\C#N)c2nc3ccccc3o2)ccc1O,36.5 µM,–
COC(=O)C1=C(O)C(C(=O)OC)[C@]2(O)[C@H](C(=O)OC)[C@H]1C[C@@H](c1ccc(F)cc1)[C@H]2C(=O)OC (stereo not given in full),31.2 µM,–
COc1cc(OCc2ccc3nc(-c4ccccc4)c(Cl)nc3c2)cc(OC)c1OC,> 100 µM,–
OC(CCN1CCCCC1)(c1ccccc1)c1ccccc1,> 100 µM,–
COC(=O)Nc1nc2ccc(S(=O)(=O)NC(CC(C)C)C(=O)OC)cc2[nH]1 (stereo not given),> 100 µM,–
O=C1CC(CC(O)[C@@H]2CCCC[C@@H]2O)CC(=O)N1c1ccccc1 (stereo not given in full),> 100 µM,–
CCC(Sc1cc(Cl)c(C)cc1S(=O)(=O)Nc1nc(N)nc(N(C)C)n1)C(=O)O (stereo not given),> 10 µM,–
O=C1c2ccccc2C(O)(C(=O)O)C1(O)CC=C(Cl)Cl (stereo not given),> 125 µM,–
